For assay [1], the target named is T1, Lin37 CD2 mutant (C119A/R120G) with C-terminal EGFP tag (mouse) (UniProt Q9D8N6).
T1 sequence: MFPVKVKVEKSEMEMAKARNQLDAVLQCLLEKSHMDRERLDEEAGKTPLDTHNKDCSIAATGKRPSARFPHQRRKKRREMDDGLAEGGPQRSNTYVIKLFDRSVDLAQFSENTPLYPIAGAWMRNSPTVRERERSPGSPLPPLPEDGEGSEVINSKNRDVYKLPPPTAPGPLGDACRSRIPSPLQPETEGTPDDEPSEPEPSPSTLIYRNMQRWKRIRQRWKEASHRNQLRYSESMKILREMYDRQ
As to the kind of experiment: co-IP; C-terminally EGFP-tagged Lin37 variants expressed in HCT116 cells; whole cell extracts in IP lysis buffer; precipitated with anti-EGFP antibodies (µMACS GFP Isolation Kit); endogenous partners detected by Western blot. (A western blot detects proteins with antibodies after separation by electrophoresis.)

The chains behind the UniProt entries cited, without tags or fusion partners.
UniProt P10244: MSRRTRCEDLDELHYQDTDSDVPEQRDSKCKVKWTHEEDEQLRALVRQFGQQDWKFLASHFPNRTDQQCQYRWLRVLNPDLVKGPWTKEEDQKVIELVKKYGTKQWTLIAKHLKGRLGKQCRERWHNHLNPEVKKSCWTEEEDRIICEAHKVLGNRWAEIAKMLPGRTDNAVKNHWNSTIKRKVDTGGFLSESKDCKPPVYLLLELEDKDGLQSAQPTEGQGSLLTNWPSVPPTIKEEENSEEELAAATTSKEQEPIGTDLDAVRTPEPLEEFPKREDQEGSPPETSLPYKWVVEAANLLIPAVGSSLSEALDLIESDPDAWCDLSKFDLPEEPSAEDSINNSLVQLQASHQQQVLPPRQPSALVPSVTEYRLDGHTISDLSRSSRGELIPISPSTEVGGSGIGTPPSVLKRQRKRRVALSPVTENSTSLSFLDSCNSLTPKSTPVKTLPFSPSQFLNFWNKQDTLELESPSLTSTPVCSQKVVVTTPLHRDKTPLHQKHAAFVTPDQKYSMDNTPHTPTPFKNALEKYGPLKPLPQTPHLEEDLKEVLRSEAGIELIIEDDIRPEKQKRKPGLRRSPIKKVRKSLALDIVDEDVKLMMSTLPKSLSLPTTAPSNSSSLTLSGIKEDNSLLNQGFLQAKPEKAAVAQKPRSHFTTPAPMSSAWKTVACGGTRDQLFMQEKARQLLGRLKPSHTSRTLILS
UniProt P48972: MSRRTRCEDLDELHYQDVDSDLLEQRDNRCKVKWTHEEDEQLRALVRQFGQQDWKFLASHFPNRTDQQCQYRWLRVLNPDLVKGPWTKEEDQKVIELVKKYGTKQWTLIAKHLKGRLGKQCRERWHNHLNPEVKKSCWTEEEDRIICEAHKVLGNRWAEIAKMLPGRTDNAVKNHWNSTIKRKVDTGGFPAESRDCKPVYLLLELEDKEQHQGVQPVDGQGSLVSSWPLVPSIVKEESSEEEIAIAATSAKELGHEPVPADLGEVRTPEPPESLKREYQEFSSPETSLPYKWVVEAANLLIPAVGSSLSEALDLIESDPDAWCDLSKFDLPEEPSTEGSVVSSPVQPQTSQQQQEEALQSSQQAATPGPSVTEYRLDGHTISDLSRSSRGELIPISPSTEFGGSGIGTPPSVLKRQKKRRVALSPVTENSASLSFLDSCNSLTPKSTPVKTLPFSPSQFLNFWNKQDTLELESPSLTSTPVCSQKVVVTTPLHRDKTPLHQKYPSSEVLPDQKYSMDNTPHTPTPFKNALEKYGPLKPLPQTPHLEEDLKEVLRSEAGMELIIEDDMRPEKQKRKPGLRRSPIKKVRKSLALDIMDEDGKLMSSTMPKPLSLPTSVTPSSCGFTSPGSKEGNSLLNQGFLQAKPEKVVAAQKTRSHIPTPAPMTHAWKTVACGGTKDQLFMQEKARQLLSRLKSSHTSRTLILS
UniProt Q6MZP7: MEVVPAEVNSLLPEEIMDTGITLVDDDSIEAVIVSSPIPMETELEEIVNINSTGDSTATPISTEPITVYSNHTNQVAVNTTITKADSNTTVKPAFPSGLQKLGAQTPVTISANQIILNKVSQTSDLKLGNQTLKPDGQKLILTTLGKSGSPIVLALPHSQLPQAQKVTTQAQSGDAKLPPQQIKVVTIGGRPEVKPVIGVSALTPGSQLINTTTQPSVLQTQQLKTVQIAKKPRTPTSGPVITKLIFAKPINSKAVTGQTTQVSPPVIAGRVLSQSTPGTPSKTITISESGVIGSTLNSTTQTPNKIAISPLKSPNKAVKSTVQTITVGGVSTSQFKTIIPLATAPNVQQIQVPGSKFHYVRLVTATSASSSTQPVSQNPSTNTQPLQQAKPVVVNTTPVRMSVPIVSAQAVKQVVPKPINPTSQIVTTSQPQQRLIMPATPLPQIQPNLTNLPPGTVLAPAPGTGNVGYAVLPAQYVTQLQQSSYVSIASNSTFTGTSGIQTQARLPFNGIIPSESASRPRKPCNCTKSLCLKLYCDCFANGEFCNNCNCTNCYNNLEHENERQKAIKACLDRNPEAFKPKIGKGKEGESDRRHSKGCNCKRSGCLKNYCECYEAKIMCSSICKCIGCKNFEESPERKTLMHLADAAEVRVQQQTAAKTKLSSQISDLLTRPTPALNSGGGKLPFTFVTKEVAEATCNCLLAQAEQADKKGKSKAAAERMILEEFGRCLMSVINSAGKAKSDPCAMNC

In assay [2] the target is T2, Lin37 wild-type with C-terminal EGFP tag (mouse) (UniProt Q9D8N6).
T2 sequence: T1 sequence with A119C, G120R
The description is as above.

The target in assay [3] is T3, Lin37 CD1+2 mutant (D101A/R102G/S103A and C119A/R120G) with C-terminal EGFP tag (mouse) (UniProt Q9D8N6).
T3 sequence: T1 sequence with D101A, R102G, S103A
The assay is described as above.

For assay [4], the target named is T4, Lin37 CD1 mutant (D101A/R102G/S103A) with C-terminal EGFP tag (mouse) (UniProt Q9D8N6).
T4 sequence: T1 sequence with D101A, R102G, S103A, A119C, G120R
The description is as above.

In assay [5] the target is T5, Lin37 CD1 mutant (D101A/R102G/S103A) with N-terminal FLAG tag (mouse) (UniProt Q9D8N6).
T5 sequence: T1 sequence with D101A, R102G, S103A, A119C, G120R
As to the kind of experiment: co-IP; N-terminally FLAG-tagged Lin37 variants expressed in NIH3T3 cells; whole cell extracts in IP lysis buffer; precipitated with anti-Flag antibodies (µMACS DYKDDDDK Isolation Kit); endogenous partners detected by Western blot.

For assay [6], the target named is T6, Lin37 CD2 mutant (C119A/R120G) with N-terminal FLAG tag (mouse) (UniProt Q9D8N6).
T6 sequence: T1 sequence
The description is as above.

Assay [7] deals with T7, Lin37 wild-type with N-terminal FLAG tag (mouse) (UniProt Q9D8N6).
T7 sequence: T1 sequence with A119C, G120R
The assay is described as above.

Assay [8] concerns the target T8, Lin37 CD1+2 mutant (D101A/R102G/S103A and C119A/R120G) with N-terminal FLAG tag (mouse) (UniProt Q9D8N6).
T8 sequence: T1 sequence with D101A, R102G, S103A
Described as above.

Changes are numbered by the printed parent chain. These are yes or no findings as the source states them, for the method shown. Binding seen in cells or lysates may run through a third protein. Some entries that bind do so weakly or less than the wild type. Sequences can lack the tags named with a protein.

Turning to “B-myb (endogenous, HCT116) (from UniProt P10244 1-700)”, the binding entry in assay [1] was “binds”; in assay [2] it was “binds”; in assay [3], “no binding”; in assay [4] it was “binds”.
As to “Lin9 (endogenous, HCT116) (from UniProt Q5TKA1 1-542)”, the binding result was “binds” in assay [1], “binds” in assay [2], “no binding” in assay [3] and “binds” in assay [4].
On to “B-myb (endogenous, NIH3T3) (from UniProt P48972 1-704)”, for which the binding entry is “binds” in assay [5], “binds” in assay [6], “binds” in assay [7] and “no binding” in assay [8].
Regarding “Lin54 (endogenous, HCT116) (from UniProt Q6MZP7 1-749)”, the binding result in assay [1] is reported as “binds”; in assay [2] it was “binds”; in assay [3] it was “no binding”; in assay [4] it was “binds”.

B1: Lin9 (endogenous, NIH3T3) (protein, UniProt Q8C735 1-542)
chain: MAELDQLPDESSSAKALVSLKEGSLSNTWNEKYSSLQKTPVWKGRNAGPAVEMPFRNSKRSRLFSDEDDRQINTKSPKRNQRVAMIPQKFTATMSTPDKKASQKIGFRLRNLLKLPKAHKWCIYEWFYSNIDKPLFEGDNDFCVCLKESFPNLKTRKLTRVEWGKIRRLMGKPRRCSSAFFEEERSALKQKRQKIRLLQQRKVADVSQFKDLPDEIPLPLVIGTKVTARLRGIHDGLFTGQIDAVDTLNATYRVTFDRTGLGTHTIPDYEVLSNEPHETMPISAFGQKQRPSRFFMTPPRLHYTPPLQSPITDGDPLLGQSPWRSKVSGSDTETLGGFPVEFLIQVTKLSKILMIKKEHIKKLREMNTEAEKLKSYSMPIGIEFQRRYATIVLELEQLNKDLNKVLHKVQQYCYELAPDQGLQPADQPTDMRRRCEEEAQEIVRQANSASGQPCVENENLTDLISRLTAILLQIKCLAEGGDLNSFEFKSLTDSLNDIKNTIDASNISCFQNNVEIHVAHIQSGLSQMGNLHAFAANNTNRD
B1: the binding result in assay [5] is “binds”; in assay [6], “binds”; in assay [7] it was “binds”; in assay [8] it was “no binding”.

B2: Lin54 (endogenous, NIH3T3) (protein, UniProt Q571G4 1-749)
chain: MEVVPAEVNSLLPDDIMDTAITLVDEDSIEAVIVSSPIPMETELEEIVNINSTGDSTATPISTEPITVYSNHTNQVAVNTTVSKADSNTTVKPAFPSGLQKLGAQTPVTISANQIILNKVSQTSDLKLGNQTLKPDGQKLILTTLGKSGSPIVLALPHSQLPQAQKVTAQAQPGDAKLPPQQIKVVTIGGRPEVKPVIGVSALTPGSQLINTTTQPSVLQTQQLKTVQIAKKPRTPTSGPVITKLIFAKPINSKAVTGQTTQASPPVVTGRVLSQSTPGTPSKTITISESGVIGSTLNSTTQTPNKIAISPLKSPNKTVKSAVQTITVGGMSTSQFKTIIPLATAPNVQQIQVPGSKFHYVRLVTATTASSSAQPVSQSPSVNTQPLQQAKPVVVNTTPVRMSVPFVQAQAVKQVVPKPINSTSQIVTTSQPQQRLIMPATPLPQIQPNLTNLPPGTVLAPAPGTGNVGYAVLPAQYVTQLQQSSYVSIASNSNFTGTSGIQTQARLPFNGIIPSESTSRPRKPCNCTKSLCLKLYCDCFANGEFCNNCNCTNCYNNLEHENERQKAIKACLDRNPEAFKPKIGKGKEGESDRRHSKGCNCKRSGCLKNYCECYEAKIMCSSICKCIGCKNFEESPERKTLMHLADAAEVRVQQQTAAKTKLSSQISDLLTRPTPALNSAGGKLPFTFVTKEVAEATCNCLLAQAEQADKKGKSKAAAERMILEEFGRCLMSVINSAGKAKSDPCAMHC
Regarding B2, the binding result in assay [5] was “binds”; in assay [6], “binds”; in assay [7] it was “binds”; in assay [8], “no binding”.

Source of the values: article PMC5602299.
